According to PMC4336329 (PLoS ONE, 2015):
Screen size: about 310,000 compounds; about 14,000 (4.5%) showed an effect of 50% or more. The effect is printed as a negative number. This is one part of the list.

molecular target: human ether-à-go-go-related gene (hERG) potassium channel (human, UniProt Q12809); assay: primary screen, population patch clamp on CHO cells stably expressing hERG
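Note: peak tail current of the secondary pulse compared with the same well before compound.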

Chain of human ether-à-go-go-related gene (hERG) potassium channel (Q12809 whole entry, looked up): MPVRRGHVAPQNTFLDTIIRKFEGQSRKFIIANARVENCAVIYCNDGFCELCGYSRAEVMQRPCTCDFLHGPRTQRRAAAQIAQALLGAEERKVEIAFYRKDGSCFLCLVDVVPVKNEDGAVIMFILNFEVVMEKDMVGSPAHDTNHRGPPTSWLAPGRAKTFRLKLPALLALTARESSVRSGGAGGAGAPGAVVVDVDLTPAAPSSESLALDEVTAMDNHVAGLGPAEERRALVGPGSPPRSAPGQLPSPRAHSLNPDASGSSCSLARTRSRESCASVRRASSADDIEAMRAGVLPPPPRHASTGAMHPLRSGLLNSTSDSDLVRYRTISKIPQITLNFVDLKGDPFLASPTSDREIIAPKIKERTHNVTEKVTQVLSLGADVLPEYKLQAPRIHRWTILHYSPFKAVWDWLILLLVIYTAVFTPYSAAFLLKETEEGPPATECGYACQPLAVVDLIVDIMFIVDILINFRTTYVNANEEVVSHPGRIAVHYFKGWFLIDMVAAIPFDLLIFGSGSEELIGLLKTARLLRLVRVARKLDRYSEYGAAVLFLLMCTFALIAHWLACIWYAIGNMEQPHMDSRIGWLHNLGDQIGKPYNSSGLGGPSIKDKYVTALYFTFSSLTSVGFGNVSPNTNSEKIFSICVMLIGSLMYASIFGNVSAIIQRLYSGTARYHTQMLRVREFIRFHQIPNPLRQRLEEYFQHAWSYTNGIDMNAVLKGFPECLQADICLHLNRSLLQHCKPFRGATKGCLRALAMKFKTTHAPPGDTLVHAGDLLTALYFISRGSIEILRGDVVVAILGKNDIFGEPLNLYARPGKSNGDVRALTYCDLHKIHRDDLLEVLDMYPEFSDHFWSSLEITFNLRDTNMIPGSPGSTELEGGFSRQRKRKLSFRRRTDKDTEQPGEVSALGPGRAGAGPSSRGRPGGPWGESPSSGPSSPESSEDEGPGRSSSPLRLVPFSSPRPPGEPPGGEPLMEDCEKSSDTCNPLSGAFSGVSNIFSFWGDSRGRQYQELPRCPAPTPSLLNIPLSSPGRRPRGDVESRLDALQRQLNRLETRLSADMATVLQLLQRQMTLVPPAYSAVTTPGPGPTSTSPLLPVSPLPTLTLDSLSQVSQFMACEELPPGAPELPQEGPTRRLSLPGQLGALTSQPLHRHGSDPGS

Row | Structure (SMILES) | hERG current change (%, negative = inhibition) at 10uM
1 | NC(=O)CNC(=O)[C@@H]1CC2(CC(c3ccc(Cl)cc3)=NO2)CN1C(=O)c1ccc(Br)cc1 (some centres unmarked) | 8.29%
2 | CCN(Cc1ccccc1)C(=O)CCS(=O)(=O)c1ccc2c(c1)oc(=O)n2C | -0.651%
3 | CC(=O)NC(CC(=O)OCC(=O)c1ccc(NC(=O)CC(C)C)cc1)c1ccccc1 (centres unmarked) | -24.6%
4 | CCOc1ccc(S(=O)(=O)N(C)c2ccc(OCC(=O)NC3=NCCS3)cc2)cc1 | -8.28%
5 | O=C(O)/C=C\C(=O)Nc1cccc(NC(=O)c2ccccc2)c1 | 28.8%
6 | Clc1ccccc1CN1CCN(c2ccccc2Cl)CC1 | 16%
7 | COc1cccc(CC(=O)OC(C)C(=O)NCc2ccc3c(c2)OCO3)c1 (centres unmarked) | -3.97%
8 | COc1ccccc1N(CC(O)COc1ccccc1C)S(=O)(=O)c1ccccc1 (centres unmarked) | 5.48%
9 | CCOc1cc(NC(=O)c2ccccc2C(=O)O)c(OCC)cc1NC(=O)c1ccccc1F | -15.9%
10 | Cc1nnc(Sc2nc3c(c(=O)n(C)c(=O)n3C)n2Cc2ccc(Cl)cc2)s1 | -26.9%
11 | CN(C)CC1CCCCC1OC(=O)/C=C/c1ccccc1.Cl (centres unmarked) | -33.2%
12 | N/C(=N\OC(=O)c1ccc2c(c1)OCO2)c1ccc([N+](=O)[O-])cc1 | 10.8%
13 | CCOc1ccc(N2CC(C(=O)OCC(=O)c3ccc(OC)cc3)CC2=O)cc1 (centres unmarked) | -56%
14 | O=C(CNC(=O)c1cc(Cl)cc([N+](=O)[O-])c1)OCC(=O)N1CCCCC1 | 4.79%
15 | COc1ccc(N(CC(=O)N/N=C/c2ccccc2F)S(=O)(=O)c2ccccc2)cc1 | 7.51%
16 | Cc1nnsc1C(=O)N(Cc1ccccc1)C(C)C | 6.73%
17 | CCNC(=O)CON=C1c2ccccc2-c2ccccc21 | -7.02%
18 | COc1ccccc1CC(=O)Nc1ncc(C)s1 | 9.97%
19 | Cc1cccc(NC(=O)CSc2nnc(CN3CCOCC3)n2C)c1C | 29.9%
20 | Cc1nc2ccc(S(=O)(=O)NCC(=O)N3CCC(C)CC3)cc2s1 | 17.2%
21 | COc1ccc(NS(=O)(=O)c2cccc(C(=O)NNC(=O)c3ccccc3O)c2)cc1 | -3.73%
22 | CCOC(=O)C1=C(C)N(CCCCCC(=O)O)C(=O)NC1c1cccc([N+](=O)[O-])c1 (centres unmarked) | 17.1%
23 | O=C(COC(=O)CNS(=O)(=O)c1ccc2ccccc2c1)Nc1ccc2c(c1)OCO2 | 7.2%
